Legend:
Assay type in all cases: binding
AtACO2 H180A = AtACO2 H180A (Arabidopsis thaliana, UniProt Q41931, H180A); settings: ITC, in the presence of Zn2+
Procedure: (§1) ITC experiments were performed using a MicroCal iTC200 (GE Healthcare) at 25 °C. Small molecules and proteins were in the same buffer containing 25 mM Bis–Tris (pH 6.0), 150 mM NaCl, 0.1 mM ZnCl2 (or 0.2 mM FeSO4 for POA and AtACO2). The concentration of small molecules in the syringe was 1 mM, and the concentration of proteins in the cell was 90 μM. Data were analysed with a one-site model using Origin 7.0 (OriginLab).

AtACO2 K161A/A251L = AtACO2 K161A/A251L (Arabidopsis thaliana, UniProt Q41931, A251L/K161A); settings: ITC, in the presence of Zn2+
Procedure: as §1

AtACO2 K161A = AtACO2 K161A (Arabidopsis thaliana, UniProt Q41931, K161A); settings: ITC, compared with wild-type AtACO2
Procedure: as §1

AtACO2 K161A/F253A = AtACO2 K161A/F253A (Arabidopsis thaliana, UniProt Q41931, F253A/K161A); settings: ITC, in the presence of Zn2+
Procedure: as §1

| SMILES | interaction with AtACO2 H180A (AtACO2 H180A) | binding to AtACO2 K161A/A251L (AtACO2 K161A/A251L) | binding to AtACO2 K161A (AtACO2 K161A) | binding to AtACO2 K161A/F253A (AtACO2 K161A/F253A) |
| --- | --- | --- | --- | --- |
| O=C(O)c1ccccn1 [2-PA, 2-picolinic acid] | abolished the interaction | completely abolished binding | reduced the binding | completely abolished binding |
| O=C(O)c1cnccn1 [POA, pyrazinecarboxylic acid] | abolished the interaction | completely abolished binding | reduced the binding | completely abolished binding |

Source: paper PMC5472784, “Pyrazinamide and derivatives block ethylene biosynthesis by inhibiting ACC oxidase” (Nature Communications, 2017)
